# Results taken from PubChem BioAssay AID1030 (National Center for Advancing Translational Sciences (NCATS), 2008).
# About 16,000 (7.3%) of roughly 220,000 compounds were called active. Inconclusive results, whose numbers are uncertain, are shown with a selection of clear calls. The call rests on the fitted dose curve; in most records, active means well fitted inhibition curve with a large enough effect (not every such curve was filed as active); inconclusive means small, poorly fitted or top-dose-only effect, or another doubt; inactive means no such curve, though single readings can be large or run the other way. No potency is given beside an inconclusive call; the fits are too rough.
# Target: Aldehyde dehydrogenase 1A1 (Homo sapiens) (UniProt P00352)
# Experiment: qHTS Assay for Inhibitors of Aldehyde Dehydrogenase 1 (ALDH1A1)
# Details: Purified ALDH1A1, NADH fluorescence, propionaldehyde substrate; series mostly up to 75.3 µM
# Potency means the concentration at half of the fitted maximal effect; tags describe the fitted curve by direction and shape.
# Sequence of UniProt P00352 (P00352 whole entry, looked up): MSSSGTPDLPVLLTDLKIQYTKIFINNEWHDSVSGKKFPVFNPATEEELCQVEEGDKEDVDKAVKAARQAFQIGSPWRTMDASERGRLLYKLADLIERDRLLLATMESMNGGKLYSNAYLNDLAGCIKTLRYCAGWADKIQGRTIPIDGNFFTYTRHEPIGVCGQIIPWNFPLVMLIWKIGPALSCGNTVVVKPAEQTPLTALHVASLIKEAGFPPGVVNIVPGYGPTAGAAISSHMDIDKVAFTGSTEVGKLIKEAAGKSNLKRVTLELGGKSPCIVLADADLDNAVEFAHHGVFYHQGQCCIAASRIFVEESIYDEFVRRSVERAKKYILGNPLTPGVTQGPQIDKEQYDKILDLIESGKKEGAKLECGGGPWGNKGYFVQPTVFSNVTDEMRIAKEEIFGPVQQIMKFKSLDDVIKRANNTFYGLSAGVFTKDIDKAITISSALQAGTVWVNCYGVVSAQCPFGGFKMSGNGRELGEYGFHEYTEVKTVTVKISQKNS
row,SMILES,Potency
1,CCOc1ccc2[nH]c(=O)c(CN(Cc3ccco3)C(CC)c3nnnn3Cc3ccccc3)cc2c1 (centres undefined),"inconclusive [inhibitor, partial curve]"
2,COC(=O)[C@@H](NC(=O)Nc1ccc(OC(F)(F)F)cc1)C(C)C,"inconclusive [inhibitor, partial curve]"
3,COc1ccccc1NC(=S)NC1CCCCCC1,inactive
4,CCOC(=O)CCCCCN(Cc1ccccc1)S(=O)(=O)c1ccc([N+](=O)[O-])cc1,"inconclusive [inhibitor, partial curve]"
5,O=[N+]([O-])c1cc(CN2CCCC2)c2cccnc2c1O,inactive
6,N#Cc1c(N)c(C#N)c(-c2ccc3c(c2)OCO3)c2c1CCCC2,"inconclusive [inhibitor, partial curve]"
7,COC(=O)C(=C/C(C)=C/c1cccs1)C(=O)OC,inactive
8,CCc1ccccc1N/N=C(/C)c1c(O)cc(C)oc1=O,active: 7.94 µM
9,O=C(COC(=O)c1cc([N+](=O)[O-])ccc1NCc1ccccc1)NC1CCCc2ccccc21 (centres undefined),"inconclusive [inhibitor, single point]"
10,CC(C)COC(=O)n1c(SCC(N)=O)nc2ccccc21,"inconclusive [inhibitor, single point]"
11,CCOC(=O)c1c[nH]c(=S)n1C,inactive
12,CCN(CC)CCCN(Cc1cc2cc3c(cc2[nH]c1=O)OCO3)C(=O)Nc1ccccc1OC,"inconclusive [inhibitor, single point]"
13,CCOC(=O)N1CCN(S(=O)(=O)c2cc(Br)cc3c2N(C(=O)CC)CC3)CC1,inactive
14,Nc1cc(C(F)(F)F)cc2c1SCC(=O)N2,inactive
15,CC(=O)Nc1cc(C(=O)NCc2ccco2)ccc1Sc1ccc(F)cc1,inactive
16,O=C(NNC(=S)Nc1cccc(C(F)(F)F)c1)c1cccc(Cl)c1,active: 22.4 µM
17,O=C(NCCc1ccc(Cl)cc1)/C(=C/c1cccnc1)NC(=O)c1ccccc1,inactive
18,CC1(C)CC(=O)C(CC2=C(O)CC(C)(C)CC2=O)=C(O)C1,active: 8.91 µM
19,CC(C)CCn1c(=O)c2ccccc2n2c(CN3CCCC3)nnc12,"inconclusive [inhibitor, partial curve, poor fit]"
20,Cc1c(C)n(CCC(=O)O)c2ccccc12,"inconclusive [inhibitor, single point]"
21,CCCCC1NC(=S)N(C2CCCCC2)C1=O (centres undefined),"inconclusive [inhibitor, single point]"
22,c1ccc(-c2cnnc(N3CCOCC3)n2)cc1,"inconclusive [inhibitor, single point]"
23,COC(=O)c1c(NC(=O)c2ccco2)sc(C(=O)N(C)C)c1C,"inconclusive [inhibitor, single point]"
24,CCCCNC(=O)c1onc(CSc2ccc(F)c(F)c2)c1C(=O)O,inactive
25,O=C(O)c1cn(-c2ccc(F)cc2)c2cc(N3CCNCC3)c(F)cc2c1=O,"inconclusive [inhibitor, partial curve]"

row,SMILES,Potency
1,O=C(/C=C/c1ccco1)NCC1(c2ccccc2)CCCC1,"inconclusive [inhibitor, single point]"
2,CCCCOc1ccccc1C1C(C(=O)OC)=CN(CC)C=C1C(=O)OC,"inconclusive [inhibitor, partial curve]"
3,COc1ccc(/C=C(/C(=O)c2ccc(Cl)cc2Cl)n2cncn2)cc1,active: 8.91 µM
4,C=CCn1c(=NC(=O)c2sc3ccccc3c2Cl)sc2cc(S(N)(=O)=O)ccc21,"inconclusive [inhibitor, single point]"
5,Cc1ccc(C)n1Cc1ccc(C(=O)O)cc1,"inconclusive [inhibitor, single point]"
6,CCn1c(SCC(=O)Nc2ccc(Cl)cc2)nc2nc3c(cc2c1=O)CCCC3,"inconclusive [inhibitor, partial curve]"
7,Cc1ccccc1CNC(=O)C(=O)Nc1nccs1,inactive
8,COC(=O)c1nnn(CC(=O)NC(=O)Nc2cccc(C)c2C)c1C(=O)OC,inactive
9,Cn1c(=O)c2c(nc(N3CCCCCC3)n2CC(O)COc2ccccc2)n(C)c1=O (centres undefined),active: 1.58 µM
10,COC(=O)c1cc2c(C)c(C)c3ccccn3c-2c1C(=O)OC,inactive
11,CC1CCc2nc(NC(=O)CN3CCOCC3)sc2C1 (centres undefined),"inconclusive [inhibitor, single point]"
12,COc1ccc(NC(=O)c2cc(-c3cc(C)ccc3O)n[nH]2)cc1Cl,inactive
13,Cc1ccc(S(=O)(=O)N(C)C)cc1NC(=O)CCc1ccccc1,active: 4.47 µM
14,C[C@@H](C[N+](C)(C)C)OC(N)=O,inactive
15,Cc1ccccc1C(=O)N1CCN(c2ccc([N+](=O)[O-])c(N3CCOCC3)c2)CC1,"inconclusive [inhibitor, partial curve]"
16,O=C(Nc1ccc(Oc2ccccc2)cc1)C1CC1,inactive
17,CCc1cc(-c2n[nH]c(=S)n2-c2cccc(C)c2)cs1,"inconclusive [inhibitor, partial curve, poor fit]"
18,CC(C)c1ccc(/C=C/c2ccc(=O)n(C)n2)cc1,"inconclusive [inhibitor, single point]"
19,CCN(CC)c1ccc(/C=N/NC(=S)NCc2ccccc2)cc1,"inconclusive [inhibitor, single point]"
20,CCOC(=O)N1CCN(C(=O)CS(=O)(=O)c2cn(Cc3ccc(Cl)cc3)c3ccccc23)CC1,"inconclusive [inhibitor, partial curve]"
21,COc1ccc(C2C(C#N)=C(N)N(c3ncn[nH]3)C3=C2C(=O)CCC3)cc1 (centres undefined),inactive
22,COc1ccc(/C=C(\C#N)C(=O)OCCNC(=O)c2ccncc2)cc1,"inconclusive [inhibitor, single point]"
23,C=CCn1c(-c2sccc2C)n[nH]c1=S,inactive
24,CCn1cc(C(=O)NCCCN(C)C)c(=O)c2cc(F)c(N3CCN(C)CC3)cc21,"inconclusive [inhibitor, partial curve]"
